# Experimental data taken from PMC6919601, “Identification of Plasmodium dipeptidyl aminopeptidase allosteric inhibitors by high throughput screening” (PLoS ONE, 2019).
# Among all 110,000 compounds or so, about 230 (0.21%) showed an effect of 50% or more. The list shows a part of the results.
# Biological target: DPAP1 (Plasmodium falciparum, UniProt Q8IIJ9)
# Assay: primary screen, percent inhibition; read by cleavage of a fluorogenic dipeptide substrate; higher = more effect of the substance
# Design: species or system P. falciparum D10 trophozoite lysates; single well
# 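Note: 30 min substrate incubation versus DMSO and 10 µM JCP410 controls.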
# Chain of DPAP1 (Q8IIJ9 whole entry, looked up): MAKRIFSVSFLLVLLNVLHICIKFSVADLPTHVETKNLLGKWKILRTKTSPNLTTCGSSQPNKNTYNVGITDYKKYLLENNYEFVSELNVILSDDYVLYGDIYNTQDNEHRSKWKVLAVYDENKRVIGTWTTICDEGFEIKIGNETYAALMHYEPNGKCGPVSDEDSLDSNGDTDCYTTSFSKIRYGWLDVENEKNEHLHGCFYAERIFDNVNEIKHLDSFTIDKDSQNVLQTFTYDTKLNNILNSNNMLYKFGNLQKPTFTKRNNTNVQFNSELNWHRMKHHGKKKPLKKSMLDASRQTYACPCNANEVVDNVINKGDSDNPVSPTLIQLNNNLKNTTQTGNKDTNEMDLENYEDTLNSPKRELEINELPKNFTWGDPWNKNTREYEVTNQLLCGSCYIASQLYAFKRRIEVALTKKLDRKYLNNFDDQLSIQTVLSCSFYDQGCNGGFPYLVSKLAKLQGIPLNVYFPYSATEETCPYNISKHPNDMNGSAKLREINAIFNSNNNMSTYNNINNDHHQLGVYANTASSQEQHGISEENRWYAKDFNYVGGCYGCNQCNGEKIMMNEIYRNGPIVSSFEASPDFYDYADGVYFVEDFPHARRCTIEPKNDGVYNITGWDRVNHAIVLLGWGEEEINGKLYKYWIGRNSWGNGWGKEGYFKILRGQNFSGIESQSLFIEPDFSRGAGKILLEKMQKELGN
row,Structure (SMILES),% Inhibition @ 10 uM
1,C=CCn1c(C(C)NC(=O)c2cccc(C)c2)nc2ccccc21 (centres unmarked),-5.77%
2,CC(=O)Nc1nonc1-c1nc2ccccc2n1Cc1cccc(C(F)(F)F)c1,-1.79%
3,N#Cc1ccc(CSc2ncn(-c3ccccc3)n2)cc1,11.1%
4,COC(=O)c1cnn2c1NCN(CCc1ccccc1)C2,-1.08%
5,CCOC(=O)c1cc2c(=O)n3ccccc3nc2n(C2CCCCC2)/c1=N\C(=O)c1ccco1,-2.04%
6,COc1ccc(OC)c(-n2nnc(-c3nsc(NC(=O)c4ccc(C)c(C)c4)n3)c2C)c1,7.97%
7,CCN(CC)c1ccc(/C=C2/C(=O)NC(=S)N(c3ccccc3C)C2=O)cc1,5.66%
8,CC(C)NS(=O)(=O)c1ccc(OCC(=O)N2CCN(c3ccc(F)cc3)CC2)cc1,-4.71%
9,O=C(c1c(F)cccc1F)N1CCN(c2cccc(C(F)(F)F)c2)CC1,-8.42%
10,CCOc1ccc(CC(=O)Nc2nccs2)cc1OCC,5.03%
11,Cc1cc(C)n2c(SCCN3C(=O)c4ccccc4C3=O)nnc2n1,0.315%
12,COc1ccc(-c2cc(C)no2)cc1S(=O)(=O)NCc1cccnc1,-6.86%
13,Cc1c(Br)c(C(=O)NC2C3CC4CC(C3)CC2C4)nn1C (centres unmarked),-2.14%
14,CC(C)CC(NC(=O)C1CCCCC1)C(=O)NC(C)c1ccccc1 (centres unmarked),-3.27%
15,Cn1c2c(c(=O)n(C)c1=O)C(c1ccccc1)C1=C(O)c3ccccc3C1=N2 (centres unmarked),0.751%
16,O=C(c1ccccc1)N1CCN(CC(O)Cn2c3ccccc3c3ccccc32)CC1 (centres unmarked),1.96%
17,COc1ccc(-c2nc(CS(=O)(=O)CC(=O)NCCCN3CCCC3=O)c(C)o2)cc1,-11.6%
18,CN(CCCNC(=O)c1nc(-c2cccc(F)c2)n2c1CCCCC2)Cc1ccccc1,3.22%
19,CCOc1ccccc1CNc1nc[nH]n1,-1.81%
20,Cc1cc(=O)n2nc(NC(C)C(=O)NCc3ccccc3Cl)sc2n1 (centres unmarked),-7.02%
21,O=C(O)C1C2C=CC(C2)C1C(=O)NC1CCCC1 (centres unmarked),-2.83%
22,COc1cccc(C(=O)Nc2ccc3[nH]c4c(c3c2)CCCC4)c1,-3.16%
23,O=S(=O)(Nc1ccccc1)c1cc(S(=O)(=O)c2ccc(Cl)c(S(=O)(=O)Nc3ccccc3)c2)ccc1Cl,3.25%
24,Cc1cc(/C=C2\C(=N)N3N=C(N4CCCC4)SC3=NC2=O)c(C)n1Cc1ccccc1,4.88%
25,C=CCN1C(=O)N/C(=C/c2ccccc2OCC(=O)Nc2ccc(F)cc2)C1=O,8.13%

row,Structure (SMILES),% Inhibition @ 10 uM
1,Cc1n[nH]c(C)c1CCCCCOc1cccc(Cl)c1,-3.42%
2,CCOC(=O)N1CCN(S(=O)(=O)Cc2ccccc2)CC1,-1.03%
3,CCOc1ccccc1CN1CCc2ccccc2C1,-7.5%
4,C=CCn1c(SCC(=O)O)nnc1-c1ccc(OC)c(OC)c1,-7.65%
5,O=C(NCc1ccc(Cl)cc1)C1CCN(S(=O)(=O)c2cc(Cl)ccc2Cl)CC1,7%
6,CCCN1CCC(NCC(C)(C)CN(C)C)CC1,-5.44%
7,O=C(Nc1ccc(NC(=O)C2CC2)cc1)C1CC1,2.13%
8,CC(C)CC(=O)N1CC(C)N(C(=O)CC(C)C)CC1C (centres unmarked),-4.59%
9,CCCS(=O)(=O)N1CCCC(C(=O)NCCCN2CCC(Cc3ccccc3)CC2)C1 (centres unmarked),-3.58%
10,Cc1cccc(Oc2ccc(NC(=O)CCCC(=O)O)cc2)c1,8.4%
11,O=C(Nc1nc2nc(-c3ccccc3)cc(O)n2n1)c1ccccc1F,-4.91%
12,Cc1ccc(NC(=O)/C=C/C(=O)O)c([N+](=O)[O-])c1,-1.97%
13,CCOc1ccccc1NC(=O)c1ccc(OC(F)F)cc1,-0.116%
14,OCCN(/C=N/C1=NN(c2ccccc2)CC1)CCO,-0.0938%
15,CCC(C#CCN1CCCCC1)OC(C)=O (centres unmarked),0.98%
16,O=C(c1cccc2cccc(O)c12)N1CCCCC1,-3.14%
17,S=C1NC2(CCCCC2)N=C1c1ccccc1,11.4%
18,CSc1ccc(CN2CCN(c3ccc(F)cc3)CC2)cc1,-0.0404%
19,Cn1c2c(c(=O)n(C)c1=O)CN(Cc1ccc(F)cc1)CN2,0.66%
20,CN(C)CC(C)(C)CNC1CC2CCC1C2 (centres unmarked),-2.21%
21,CN(C)CN1C(=O)S/C(=C/c2ccccc2Br)C1=O,-0.171%
22,O=C(Cc1ccccc1)Nc1nn2c(-c3ccccc3)nnc2s1,0.522%
23,Cc1ccc(C)c(N(CC(=O)Nc2cccnc2)S(C)(=O)=O)c1,5.59%
24,CSc1ccc(CN2CCN(CCO)CC2)cc1,2.46%
25,Cc1c(Cl)cccc1N/C=C(\C#N)C(=O)NC(=O)c1ccccc1,-1.06%
